Reference: publication PMC3989777 (Cell Reports, 2014)

Target: FLAG-tagged RPAP3 (human, UniProt Q9H6T3)
Assay: pull-down

B1: GST-K64A PIH1D1 (natural protein)
chain: not shown
binding result: binds
